The antibiotic and cytotoxicity screens of Wong et al. (2023)
The other results are listed elsewhere or left out.

test system: HepG2; assay: cytotoxicity call (relative viability < 0.9); conditions: 10 µM

SMILES | cytotoxicity call
Cc1noc(C)c1NC(=O)N(C)C[C@@H]1OCCCC[C@H](C)Oc2ccc(NC(=O)c3ccccc3)cc2C(=O)N([C@H](C)CO)C[C@@H]1C | inactive
CNC[C@@H]1OCCCC[C@H](C)Oc2ccc(NC(=O)Nc3cccc4ccccc34)cc2C(=O)N([C@@H](C)CO)C[C@@H]1C | inactive
O=C([O-])Cc1ccccc1Nc1c(Cl)cccc1Cl.[Na+] | inactive
C[C@H](CO)N1C[C@H](C)[C@H](CN(C)Cc2ccc(Cl)c(Cl)c2)Oc2c(NC(=O)Nc3ccccc3)cccc2C1=O | inactive
CN(C)c1cnccn1.O=S(=O)(O)O | inactive
COc1cccc(S(=O)(=O)N(C)C[C@H]2Oc3cc(C4=CCCC4)ccc3S(=O)(=O)N([C@H](C)CO)C[C@H]2C)c1 | inactive
CC[C@@H](C)NC(=O)C1CCNCC1 | inactive
O=C1Nc2ccc(I)cc2C1=Cc1cc(Br)c(O)c(Br)c1 | active
C[C@@H]1CN([C@@H](C)CO)C(=O)c2cc(NC(=O)Nc3ccc(C(F)(F)F)cc3)ccc2O[C@@H](C)CCCCO[C@@H]1CN(C)C(=O)CCCN(C)C | inactive
C[C@@H]1CCCCO[C@@H](CN(C)C(=O)C2CCCCC2)[C@H](C)CN([C@H](C)CO)C(=O)c2cc(NC(=O)Cc3ccccc3)ccc2O1 | inactive
C[C@@H]1CN([C@H](C)CO)C(=O)c2cc(NC(=O)c3ccncc3)ccc2O[C@@H]1CN(C)S(=O)(=O)c1ccc(F)cc1 | inactive
CC(C)CC#Cc1ccc2c(c1)O[C@H](CN(C)C(=O)Cc1cccnc1)[C@H](C)CN([C@@H](C)CO)S2(=O)=O | inactive
